Hit rate of the full screen: of about 390,000 compounds, about 150 (0.038%) were called active. The inconclusive results got no clear call from the source; some entries with a clear call stand among them for comparison. The call rests on the fitted dose curve; in most records, active means well fitted inhibition curve with a large enough effect; inconclusive means small, poorly fitted or top-dose-only effect; inactive means no such curve, though single readings can be large or run the other way. Where the call is inconclusive, the potency comes from a doubtful curve fit.
Biological target: Regulator of G-protein signaling 4 (Homo sapiens) (UniProt P49798)
Assay: Inhibitors of Regulator of G Protein Signaling (RGS) 4: qHTS; further: nearly all actives have a fitted effect of over 75% in size
Conditions: Transcreener GDP fluorescence polarization, RGS4-accelerated GTP hydrolysis; series mostly up to 114 µM
Procedure, shortened: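 MLSMR compounds (23 nl, pin-transferred) preincubated 10 min at room temperature with a 500nM (2x) first reagent, then RGS4 at 900nM (2x) plus Transcreener GDP mix added; fluorescence polarization (620/688 nm) read before and after 90 min at 30 °C.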
Potency means the concentration at half of the fitted maximal effect; tags describe the fitted curve by direction and shape.

Sequence of UniProt P49798 (P49798 whole entry, looked up): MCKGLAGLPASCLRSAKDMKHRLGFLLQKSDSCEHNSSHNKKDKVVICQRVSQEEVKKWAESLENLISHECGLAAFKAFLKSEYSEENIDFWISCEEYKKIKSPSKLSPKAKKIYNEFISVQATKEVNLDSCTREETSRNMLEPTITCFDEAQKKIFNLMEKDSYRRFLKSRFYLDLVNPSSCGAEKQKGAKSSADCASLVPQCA

| SMILES | Potency |
| --- | --- |
| C=CCn1c(SCC(=O)NC2CCCC2)nc2scc(-c3ccco3)c2c1=O | inconclusive: 31.6 µM [inhibitor, full curve, poor fit] |
| Cc1nc([N+](=O)[O-])c(Sc2nc3ccccc3n2C)n1Cc1ccccc1 | inconclusive: 35.5 µM [inhibitor, full curve, poor fit] |
| CC[n+]1c(C)sc2cc(C)ccc21 | inconclusive: 112 µM [inhibitor, partial curve, poor fit] |
| CCOc1cc(N2CCOCC2)c(OCC)cc1NC(=O)c1cccc(S(=O)(=O)N2CCOCC2)c1 | inactive |
| CCc1cc(=O)oc2cc3occ(-c4ccc(OC)c(F)c4)c3cc12 | inconclusive: 50.1 µM [inhibitor, partial curve, poor fit] |
| CCOc1ccc(/C=C/C(=O)c2cc(Br)ccc(=O)c2O)cc1 | inconclusive: 50.1 µM [inhibitor, partial curve, poor fit] |
| N#C/C(=C\c1cccc(Oc2ccccc2)c1)C(=O)N1CCOCC1 | inconclusive: 28.2 µM [inhibitor, full curve, poor fit] |
| CCOc1cc(N2CCOCC2)c(OCC)cc1NS(=O)(=O)c1ccc(Cl)s1 | inconclusive: 79.4 µM [inhibitor, single point] |
| O=C(NCc1ccc2c(c1)OCO2)Nc1ccc(Cl)cc1 | inconclusive: 89.1 µM [inhibitor, single point] |
| Cc1ccc(C(C2C(=O)CC(C)(C)CC2=O)C2C(=O)CC(C)(C)CC2=O)s1 | inconclusive: 35.5 µM [inhibitor, partial curve, poor fit] |
| C[C@@H]1C[C@@H]2OC(=O)[C@]3(C)[C@H]2[C@@H](OC3(C)O)[C@]2(C)C(=O)C=C[C@H]12 (stereo partly drawn) | inactive |
| Cc1nnc(Sc2cc(NCCO)c([N+](=O)[O-])c3nonc23)s1 | inconclusive: 56.2 µM [inhibitor, partial curve, poor fit] |
| Cc1nn(Cc2ccc(C(=O)N3N=C(C(F)F)CC3(O)C(F)F)o2)c(C)c1[N+](=O)[O-] (stereo not drawn) | inactive |
| O=S(=O)(Nc1c(O)ccc2ccccc12)c1ccccc1 | inconclusive: 39.8 µM [inhibitor, partial curve, poor fit] |
| COc1cccc(NC(=O)c2csc3c2CCCC3)c1 | inactive |
| Cc1ccc(-c2csc(/C(C#N)=C(\O)CCl)n2)cc1 | inconclusive: 10 µM [inhibitor, full curve, poor fit] |
| O=C(O)CC1CCC(=C(Cl)Cl)C1 (stereo not drawn) | inactive |
| Cc1cc(C)c2nc(NCCCNC(=S)NCCCN(C)C)c(C#N)cc2c1 | inactive |

Reference: PubChem BioAssay AID504845 (National Center for Advancing Translational Sciences (NCATS), 2011)
